Test results taken from PubChem BioAssay AID720709 (National Center for Advancing Translational Sciences (NCATS), 2013).
Among all 360,000 compounds or so, about 520 (0.14%) were called active. The inconclusive results got no clear call from the source; some entries with a clear call stand among them for comparison. The call rests on the fitted dose curve; in most records, active means well fitted inhibition curve with a large enough effect; inconclusive means small, poorly fitted or top-dose-only effect; inactive means no such curve, though single readings can be large or run the other way. No potency is given beside an inconclusive call; the fits are too rough.
Further: nearly all actives have a fitted effect of over 50% in size.
Potency means the concentration at half of the fitted maximal effect; tags describe the fitted curve by direction and shape.
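Wherever activity change, negative = inhibition is given: plate controls were vehicle for no effect and positive control for full effect.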

These compounds were tested against Rap guanine nucleotide exchange factor 3 (Homo sapiens) (UniProt O95398) (assay: qHTS for Antagonist of cAMP-regulated guanine nucleotide exchange factor 3 (EPAC1): primary screen). Settings: EPAC1 GEF assay, Rap1b-BODIPY-GDP exchange fluorescence; activity change, negative = inhibition: at 115 µM (top of the series).
Chain of UniProt O95398 (O95398 whole entry, looked up): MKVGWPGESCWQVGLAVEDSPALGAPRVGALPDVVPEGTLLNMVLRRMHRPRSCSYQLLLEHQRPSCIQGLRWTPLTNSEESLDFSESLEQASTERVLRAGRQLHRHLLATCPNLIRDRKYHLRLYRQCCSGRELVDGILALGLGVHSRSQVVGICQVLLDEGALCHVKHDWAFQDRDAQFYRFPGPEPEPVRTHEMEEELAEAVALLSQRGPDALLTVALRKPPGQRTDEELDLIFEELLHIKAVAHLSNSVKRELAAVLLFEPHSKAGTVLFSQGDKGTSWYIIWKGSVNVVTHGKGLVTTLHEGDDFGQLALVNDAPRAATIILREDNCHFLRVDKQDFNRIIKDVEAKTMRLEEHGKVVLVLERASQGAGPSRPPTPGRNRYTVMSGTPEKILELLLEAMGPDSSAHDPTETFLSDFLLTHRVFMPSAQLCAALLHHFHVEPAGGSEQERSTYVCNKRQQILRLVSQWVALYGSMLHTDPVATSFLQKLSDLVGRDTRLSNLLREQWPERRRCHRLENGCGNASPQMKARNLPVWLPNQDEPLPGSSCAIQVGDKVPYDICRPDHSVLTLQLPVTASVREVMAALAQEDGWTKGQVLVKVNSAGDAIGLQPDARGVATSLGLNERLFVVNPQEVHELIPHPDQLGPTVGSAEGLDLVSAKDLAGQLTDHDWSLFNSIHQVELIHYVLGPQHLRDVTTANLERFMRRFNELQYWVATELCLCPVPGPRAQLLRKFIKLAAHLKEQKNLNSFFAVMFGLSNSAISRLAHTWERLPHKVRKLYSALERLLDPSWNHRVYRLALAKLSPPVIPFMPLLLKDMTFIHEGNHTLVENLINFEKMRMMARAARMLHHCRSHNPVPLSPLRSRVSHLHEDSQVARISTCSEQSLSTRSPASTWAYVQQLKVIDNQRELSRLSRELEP
`CC12CCC3(CC1CCC1OC12)OCCO3` (configuration not stated) was tested, and the “activity change, negative = inhibition” value was inactive: -21.3%.
`Cc1ccccc1C(=O)Nc1cccc(C(=O)N/N=C/c2cc(Cl)cc([N+](=O)[O-])c2O)c1` was tested, and the Potency was inconclusive [inhibitor, partial curve].
With `CCc1nc2ccc(C(=O)N(C)CCCN(C)C)cn2c1N(C=O)CCC(C)C` the “activity change, negative = inhibition” value was inactive: -0.0901%.
`O=S(=O)(c1ccc(Cl)c2ccccc12)N1CCCC1` was tested, and the Potency was inconclusive [inhibitor, full curve, poor fit].
For `CN(C)c1ccc(-n2cccc2/C=C/[N+](=O)[O-])cc1`, the Potency was inconclusive [inhibitor, full curve, poor fit].
For `COc1ccccc1C1CN=NC12CCCc1ccccc1C2=O` (configuration not stated), the “activity change, negative = inhibition” value was inactive: 10.6%.
`CC1CCC2=NN(C(=O)c3ccco3)C(O)(C(F)(F)F)C2C1` (configuration not stated) was tested, and the “activity change, negative = inhibition” value was inactive: -10.4%.
For `COc1ccc(-c2cccc(-c3cc(=O)oc4cc(OC)c(OC)c(OC)c34)c2)cc1`, the Potency was inconclusive [inhibitor, partial curve].
For `CCCn1c(N)c(C(=O)CSc2nc3ccccc3c(=O)n2-c2ccc(OC)cc2)c(=O)[nH]c1=O`, the Potency was inconclusive [inhibitor, single point].
With `O=C(Nc1ccc2ncccc2c1)c1ccccc1Br` the “activity change, negative = inhibition” value was inactive: -11%.
For `Cc1ccc2c(c1)C1CN(C)CCC1N2S(=O)(=O)c1ccc(Oc2ccc([N+](=O)[O-])cc2)cc1` (configuration not stated), the Potency was inconclusive [inhibitor, single point].
In the case of `CCOc1ccc(-n2ccnc(SCC(=O)Nc3cccc(OC)c3)c2=O)cc1`, the Potency is reported as inconclusive [inhibitor, single point].
For `CCN1C(=O)[C@@H]2[C@@H](c3ccc(-c4ccc(Cl)c(Cl)c4)cc3)N3CCC[C@@]3(C(=O)OC)[C@@H]2C1=O`, the Potency was inconclusive [inhibitor, partial curve, poor fit].
In the case of `Cn1cccc1/C=N/NC(=O)c1cc2ccccc2cc1O`, the Potency is reported as inconclusive [inhibitor, single point].
With `CCC(=O)NC(c1cccs1)c1cc([N+](=O)[O-])c2cccnc2c1O` (configuration not stated) the Potency was inconclusive [inhibitor, partial curve].
In the case of `CCCCCCNC(=O)CC(c1ccccc1)c1cc(Br)ccc1O` (configuration not stated), the Potency is reported as inconclusive [inhibitor, full curve].
For `O=C(NCc1ccc(F)cc1)c1cc(C2CCCCN2S(=O)(=O)Cc2ccccc2)on1` (configuration not stated), the Potency was inconclusive [inhibitor, single point].
With `COc1ccc(/C=N/NC(=O)c2cccc(NC(=O)c3ccccc3Cl)c2)cc1OC` the Potency was inconclusive [inhibitor, partial curve].
`O=C(NNc1ccccc1F)C1CCC1` was tested, and the Potency was inconclusive [inhibitor, full curve, poor fit].
With `Cc1ccccc1Nc1nc(N)[nH]c(=O)c1N=O` the “activity change, negative = inhibition” value was inactive: -2.2%.
In the case of `O=C(Cn1ccc(NC(=O)OCc2ccccc2)nc1=O)NCCc1c[nH]c2ccccc12`, the Potency is reported as inconclusive [inhibitor, partial curve].
With `CN(C)c1cccc(Nc2ccc(-c3ccc(OC(F)(F)F)cc3)cn2)c1` the “activity change, negative = inhibition” value was inactive: -25.1%.
`COc1ccc(Cc2nnc(N=Nc3c(O)[nH]c4ccc(Br)cc34)[nH]c2=O)cc1` was tested, and the Potency was inconclusive [inhibitor, partial curve].
For `O=C(CCCC(=O)OCC(Cl)=C(Cl)Cl)Nc1ccc(F)cc1`, the Potency was inconclusive [inhibitor, single point].
`Cc1ccc(SC(CC(=O)c2ccc(F)cc2)C(=O)O)cc1` (configuration not stated) was tested, and the Potency was inconclusive [inhibitor, full curve, poor fit].
In the case of `S=C(NCc1ccccc1)NNc1nc2ccccc2[nH]1`, the “activity change, negative = inhibition” value is reported as inactive: -2.44%.
For `COc1ccc2c(Cl)c(C(=O)N/N=C/c3ccc4c(c3)OCO4)sc2c1`, the “activity change, negative = inhibition” value was inactive: -0.789%.
For `O=C1NC[C@H](CCCCN2C[C@H](Cc3ccc(O)cc3)N(Cc3ccccc3)C(=O)C2=O)N(CCc2ccc(O)cc2)C1=O`, the “activity change, negative = inhibition” value was inactive: -21.8%.
For `CCOC(=O)c1ccccc1NS(=O)(=O)c1ccc(OCC)cc1`, the Potency was inconclusive [inhibitor, single point].
For `CC(C)OC(=O)c1cc(C(=O)c2cc(Br)ccc2O)coc1=N`, the Potency was inconclusive [inhibitor, single point].
`CCOC(=O)C(C(C)=O)c1c(Br)c(O)c(O)c2c(C(=O)c3ccc(C)cc3)coc12` (configuration not stated) was tested, and the Potency was inconclusive [inhibitor, single point].
In the case of `COC(=O)N[C@@H]1C[C@H]2[C@@H]3CC[C@H]4C[C@@H](OC)CC[C@]4(C)[C@H]3CC[C@@]12C`, the Potency is reported as inconclusive [inhibitor, single point].
`COc1ccc(/C=C(\NC(=O)c2cccs2)C(=O)Nc2ccc(C)cc2)cc1OC` was tested, and the Potency was inconclusive [inhibitor, single point].
`O=C(COc1ccc(Br)cc1F)NC1CC1` was tested, and the “activity change, negative = inhibition” value was inactive: -5.8%.
For `COc1ccc(-c2csc3ncn(Cc4ccccc4)c(=O)c23)cc1`, the Potency was inconclusive [inhibitor, single point].
With `CCOC(=O)C1=C(CC)OC(N)=C(C#N)C1c1ccc(F)cc1F` (configuration not stated) the Potency was inconclusive [inhibitor, partial curve, poor fit].
For `Cc1c(Nc2cc(Cl)c3nonc3c2[N+](=O)[O-])c(=O)n(-c2ccccc2)n1C`, the “activity change, negative = inhibition” value was inactive: -20.5%.
In the case of `CCCNC(=O)c1ccc(N2CCC3(CC2)CC(c2ccccc2)=NO3)c(NC(=O)c2ccccc2)c1`, the Potency is reported as inconclusive [inhibitor, partial curve, poor fit].
`COc1ccc(S(=O)(=O)N2CCN(C)CC2c2ccccc2)cc1OC` (configuration not stated) was tested, and the “activity change, negative = inhibition” value was inactive: 5.92%.
For `CCOC(=O)c1c(NC(=O)/C=C/C(=O)O)sc(C)c1-c1ccc(C)c(C)c1`, the Potency was inconclusive [inhibitor, partial curve, poor fit].
In the case of `C(=N\n1cnnc1)/c1ccc(OCc2cccc3ccccc23)cc1`, the “activity change, negative = inhibition” value is reported as inactive: -25.6%.
For `CC(C)(C)NC(=O)C(c1ccc(C(F)(F)F)cc1)n1c(=O)c(-c2ccco2)nc2ccccc21` (configuration not stated), the Potency was inconclusive [inhibitor, partial curve].
